{"source": "the supplement of paper PMC8728848", "experiment_in_all_cases": "glycan array binding signal (z-score within array); higher = stronger binding", "details_in_all_cases": "glycan notation: IUPAC condensed, linker removed; mutation: R120K", "key": {"[1]": {"biological_target": "Fuc(a1-3)[Gal3S(b1-4)]GlcNAc", "in_short": "(§1)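 Arrays were curated from the Consortium for Functional Glycomics database, 3228 in total, and kept only where the protein sequence was available. Binding is expressed as a within-array Z-score. This score was averaged across arrays of the same protein sequence at different concentrations or buffers and across linkers, and negative values can be read as non-binding.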"}, "[2]": {"biological_target": "Fuc(a1-3)[Gal3S(b1-4)]GlcNAc6S", "in_short": "as §1"}, "[3]": {"biological_target": "Fuc(a1-3)[GalNAc(b1-4)]GlcNAc", "in_short": "as §1"}, "[4]": {"biological_target": "Fuc(a1-3)[GalNAc(b1-4)]GlcNAc6S", "in_short": "as §1"}, "Fuc(a1-4)GlcNAc": {"biological_target": "Fuc(a1-4)GlcNAc", "in_short": "as §1"}, "Fuc(b1-3)GlcNAc": {"biological_target": "Fuc(b1-3)GlcNAc", "in_short": "as §1"}, "Gal(a1-2)Gal": {"biological_target": "Gal(a1-2)Gal", "in_short": "as §1"}, "Gal(a1-3)Gal": {"biological_target": "Gal(a1-3)Gal", "in_short": "as §1"}, "Gal(a1-3)Gal(b1-3)GlcNAc": {"biological_target": "Gal(a1-3)Gal(b1-3)GlcNAc", "in_short": "as §1"}, "[5]": {"biological_target": "Gal(a1-3)Gal(b1-3)GlcNAc(b1-2)Man", "in_short": "as §1"}, "[6]": {"biological_target": "Gal(a1-3)Gal(b1-3)GlcNAc(b1-2)Man(a1-3)[Gal(a1-3)Gal(b1-3)GlcNAc(b1-2)Man(a1-6)]Man(b1-4)GlcNAc(b1-4)GlcNAc", "in_short": "as §1"}, "[7]": {"biological_target": "Gal(a1-3)Gal(b1-3)GlcNAc(b1-3)GalNAc", "in_short": "as §1"}, "[8]": {"biological_target": "Gal(a1-3)Gal(b1-3)GlcNAc(b1-6)GalNAc", "in_short": "as §1"}, "[9]": {"biological_target": "Gal(a1-3)Gal(b1-3)[Fuc(a1-4)]GlcNAc(b1-2)Man(a1-3)[Gal(a1-3)Gal(b1-3)[Fuc(a1-4)]GlcNAc(b1-2)Man(a1-6)]Man(b1-4)GlcNAc(b1-4)GlcNAc", "in_short": "as §1"}, "Gal(a1-3)Gal(b1-4)Glc": {"biological_target": "Gal(a1-3)Gal(b1-4)Glc", "in_short": "as §1"}, "Gal(a1-3)Gal(b1-4)GlcNAc": {"biological_target": "Gal(a1-3)Gal(b1-4)GlcNAc", "in_short": "as §1"}, "[10]": {"biological_target": "Gal(a1-3)Gal(b1-4)GlcNAc(b1-2)Man", "in_short": "as §1"}, "[11]": {"biological_target": "Gal(a1-3)Gal(b1-4)GlcNAc(b1-2)Man(a1-3)[Gal(a1-3)Gal(b1-4)GlcNAc(b1-2)Man(a1-6)]Man(b1-4)GlcNAc(b1-4)GlcNAc", "in_short": "as §1"}, "[12]": {"biological_target": "Gal(a1-3)Gal(b1-4)GlcNAc(b1-3)GalNAc", "in_short": "as §1"}, "[13]": {"biological_target": "Gal(a1-3)Gal(b1-4)GlcNAc(b1-6)GalNAc", "in_short": "as §1"}, "[14]": {"biological_target": "Gal(a1-3)Gal(b1-4)[Fuc(a1-3)]GlcNAc", "in_short": "as §1"}, "[15]": {"biological_target": "Gal(a1-3)Gal(b1-4)[Fuc(a1-3)]GlcNAc(b1-2)Man(a1-3)[Gal(a1-3)Gal(b1-4)[Fuc(a1-3)]GlcNAc(b1-2)Man(a1-6)]Man(b1-4)GlcNAc(b1-4)GlcNAc", "in_short": "as §1"}, "Gal(a1-3)GalNAc": {"biological_target": "Gal(a1-3)GalNAc", "in_short": "as §1"}, "[16]": {"biological_target": "Gal(a1-3)[Gal(a1-4)]Gal(b1-4)GlcNAc", "in_short": "as §1"}, "[17]": {"biological_target": "Gal(a1-4)Gal(b1-3)GlcNAc(b1-2)Man(a1-3)[Gal(a1-4)Gal(b1-3)GlcNAc(b1-2)Man(a1-6)]Man(b1-4)GlcNAc(b1-4)GlcNAc", "in_short": "as §1"}, "Gal(a1-4)Gal(b1-4)Glc": {"biological_target": "Gal(a1-4)Gal(b1-4)Glc", "in_short": "as §1"}, "Gal(a1-4)Gal(b1-4)GlcNAc": {"biological_target": "Gal(a1-4)Gal(b1-4)GlcNAc", "in_short": "as §1"}, "[18]": {"biological_target": "Gal(a1-4)Gal(b1-4)GlcNAc(b1-2)Man(a1-3)[Gal(a1-4)Gal(b1-4)GlcNAc(b1-2)Man(a1-6)]Man(b1-4)GlcNAc(b1-4)GlcNAc", "in_short": "as §1"}, "[19]": {"biological_target": "Gal(a1-4)Gal(b1-4)GlcNAc(b1-3)Gal(b1-4)Glc", "in_short": "as §1"}, "Gal(a1-4)GlcNAc": {"biological_target": "Gal(a1-4)GlcNAc", "in_short": "as §1"}, "Gal(a1-6)Glc": {"biological_target": "Gal(a1-6)Glc", "in_short": "as §1"}, "Gal(b1-2)Gal": {"biological_target": "Gal(b1-2)Gal", "in_short": "as §1"}, "Gal(b1-3)Gal": {"biological_target": "Gal(b1-3)Gal", "in_short": "as §1"}, "Gal(b1-3)Gal(b1-4)GlcNAc": {"biological_target": "Gal(b1-3)Gal(b1-4)GlcNAc", "in_short": "as §1"}, "Gal(b1-3)GalNAc": {"biological_target": "Gal(b1-3)GalNAc", "in_short": "as §1"}, "[20]": {"biological_target": "Gal(b1-3)GalNAc(a1-3)[Fuc(a1-2)]Gal(b1-4)Glc", "in_short": "as §1"}, "[21]": {"biological_target": "Gal(b1-3)GalNAc(a1-3)[Fuc(a1-2)]Gal(b1-4)GlcNAc", "in_short": "as §1"}}, "note": "This is one part of the list.", "data": [{"binder": "Siglec-9 (Homo sapiens), Q9Y336 (protein) MLLLLLPLLWGRERAEGQTSKLLTMQSSVTVQEGLCVHVPCSFSYPSHGWIYPGPVVHGYWFREGANTDQDAPVATNNPARAVWEETRDRFHLLGDPHTKNCTLSIRDARRSDAGRYFFKMEKGSIKWNYKHHRLSVNVTALTHRPNILIPGTLESGCPQNLTCSVPWACEQGTPPMISWIGTSVSPLDPSTTRSSVLTLIPQPQDHGTSLTCQVTFPGASVTTNKTVHLNVSYPPQNLTMTVFQGDGTVSTVLGNGSSLSLPEGQSLRLVCAVDAVDSNPPARLSLSWRGLTLCPSQPSNPGVLELPWVHLRDAAEFTCRAQNPLGSQQVYLNVSLQSKATSGVTQGVVGGAGATALVFLSFCVIFVVVRSCRKKSARPAAGVGDTGIEDANAVRGSASQGPLTEPWAEDSPPDQPPPASARSSVGEGELQYASLSFQMVKPWDSRGQEATDTEYSEIKIHR", "values": [{"measurement": "glycan array binding signal (z-score)", "setting": "[1]", "value": -0.316}, {"measurement": "glycan array binding signal (z-score)", "setting": "[2]", "value": -0.209}, {"measurement": "glycan array binding signal (z-score)", "setting": "[3]", "value": 0.116}, {"measurement": "glycan array binding signal (z-score)", "setting": "[4]", "value": -0.298}, {"measurement": "glycan array binding signal (z-score)", "setting": "Fuc(a1-4)GlcNAc", "value": 2.96}, {"measurement": "glycan array binding signal (z-score)", "setting": "Fuc(b1-3)GlcNAc", "value": -0.36}, {"measurement": "glycan array binding signal (z-score)", "setting": "Gal(a1-2)Gal", "value": -0.017}, {"measurement": "glycan array binding signal (z-score)", "setting": "Gal(a1-3)Gal", "value": 0.392}, {"measurement": "glycan array binding signal (z-score)", "setting": "Gal(a1-3)Gal(b1-3)GlcNAc", "value": 1}, {"measurement": "glycan array binding signal (z-score)", "setting": "[5]", "value": 0.513}, {"measurement": "glycan array binding signal (z-score)", "setting": "[6]", "value": 0.099}, {"measurement": "glycan array binding signal (z-score)", "setting": "[7]", "value": -0.265}, {"measurement": "glycan array binding signal (z-score)", "setting": "[8]", "value": 0.265}, {"measurement": "glycan array binding signal (z-score)", "setting": "[9]", "value": 0.321}, {"measurement": "glycan array binding signal (z-score)", "setting": "Gal(a1-3)Gal(b1-4)Glc", "value": -0.308}, {"measurement": "glycan array binding signal (z-score)", "setting": "Gal(a1-3)Gal(b1-4)GlcNAc", "value": -0.253}, {"measurement": "glycan array binding signal (z-score)", "setting": "[10]", "value": -0.44}, {"measurement": "glycan array binding signal (z-score)", "setting": "[11]", "value": -0.31}, {"measurement": "glycan array binding signal (z-score)", "setting": "[12]", "value": -0.013}, {"measurement": "glycan array binding signal (z-score)", "setting": "[13]", "value": -0.055}, {"measurement": "glycan array binding signal (z-score)", "setting": "[14]", "value": 0.067}, {"measurement": "glycan array binding signal (z-score)", "setting": "[15]", "value": 3.77}, {"measurement": "glycan array binding signal (z-score)", "setting": "Gal(a1-3)GalNAc", "value": -0.066}, {"measurement": "glycan array binding signal (z-score)", "setting": "[16]", "value": 0.327}, {"measurement": "glycan array binding signal (z-score)", "setting": "[17]", "value": -0.104}, {"measurement": "glycan array binding signal (z-score)", "setting": "Gal(a1-4)Gal(b1-4)Glc", "value": -0.209}, {"measurement": "glycan array binding signal (z-score)", "setting": "Gal(a1-4)Gal(b1-4)GlcNAc", "value": -0.186}, {"measurement": "glycan array binding signal (z-score)", "setting": "[18]", "value": 0.834}, {"measurement": "glycan array binding signal (z-score)", "setting": "[19]", "value": -0.019}, {"measurement": "glycan array binding signal (z-score)", "setting": "Gal(a1-4)GlcNAc", "value": -0.515}, {"measurement": "glycan array binding signal (z-score)", "setting": "Gal(a1-6)Glc", "value": -0.186}, {"measurement": "glycan array binding signal (z-score)", "setting": "Gal(b1-2)Gal", "value": -0.185}, {"measurement": "glycan array binding signal (z-score)", "setting": "Gal(b1-3)Gal", "value": 0.201}, {"measurement": "glycan array binding signal (z-score)", "setting": "Gal(b1-3)Gal(b1-4)GlcNAc", "value": -0.032}, {"measurement": "glycan array binding signal (z-score)", "setting": "Gal(b1-3)GalNAc", "value": -0.322}, {"measurement": "glycan array binding signal (z-score)", "setting": "[20]", "value": -0.613}, {"measurement": "glycan array binding signal (z-score)", "setting": "[21]", "value": -0.09}]}]}
